Assay results from the supplement of paper PMC9135407.
Several values for one entry are separate records, joined by “and”; a condition that tells them apart may be missing. Equal values may be shown once. Where a name gives a salt, the structure may show the parent alone. Screen size: about 5,800 compounds; about 620 (11%) showed activity.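 How the source made its calls: active = score above a cut-off or among the top three wells of a plate; in these data no inactive exceeds 0.85.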 The list shows a part of the results, in another mix than the full data.

System: primary human hepatic stellate cells (donor 1)
Test: scaled lipid accumulation score (0 = DMSO-like, 1 = nortriptyline-like); higher = stronger HSC inactivation (lipid re-accumulation), active = hit call of the paper
Details: 48 h
[1] = library stock concentration: 10 mM
[2] = library stock concentration: 3.33 mM
[3] = library stock concentration: 9.6 mM
[4] = library stock concentration: 8.1 mM
[5] = library stock concentration: 1 mM
[6] = library stock concentration: 400 uM
[7] = library stock concentration: 2 mM

## NS(=O)(=O)c1cc2c(cc1Cl)NC(C1CC3C=CC1C3)NS2(=O)=O (stereo unspecified) [Cyclothiazide]
Library stock concentration: 5.1 mM
  scaled lipid accumulation score: inactive: ≤ 0
[1]
  scaled lipid accumulation score: inactive: ≤ -0.07 and inactive: 0.028

## O=C1NS(=O)(=O)c2ccccc21 [Saccharin]
[1]
  scaled lipid accumulation score: inactive: 0.02
Library stock concentration: 10.9 mM
  scaled lipid accumulation score: inactive: ≤ 0

## S=C(S)N1CCCC1 [Pyrrolidinedithiocarbamate ammonium]
[1]
  scaled lipid accumulation score: inactive: 0.149

## S=C(S)N1CCCC1 [Ammonium pyrrolidinedithiocarbamate]
[1]
  scaled lipid accumulation score: inactive: ≤ 0

## Cc1cc(Nc2cc(N3CCN(C)CC3)nc(C=Cc3ccccc3)n2)n[nH]1
[2]
  scaled lipid accumulation score: active: 1.06

## CCN(CC)CC(=O)Nc1c(C)cccc1C [Lidocaine hydrochloride]
[1]
  scaled lipid accumulation score: inactive: ≤ 0 and inactive: ≤ -0.052

## CCN(CC)CC(=O)Nc1c(C)cccc1C [Lidocaine]
[2]
  scaled lipid accumulation score: inactive: ≤ 0
[1]
  scaled lipid accumulation score: inactive: ≤ 0

## CCN(CC)CC(=O)Nc1c(C)cccc1C
[3]
  scaled lipid accumulation score: inactive: 0.022
Library stock concentration: 17.3 mM
  scaled lipid accumulation score: inactive: 0.009

## CCN(CC)CC(=O)Nc1c(C)cccc1C [Lidoca?ne hydrochloride]
  scaled lipid accumulation score: inactive: 0.017

## CC(=O)OCC(=O)[C@@]12OC(C)(C)O[C@@H]1C[C@H]1[C@@H]3C[C@H](F)C4=CC(=O)C=C[C@]4(C)[C@@]3(F)[C@@H](O)C[C@@]12C [Fluocinonide]
  scaled lipid accumulation score: inactive: ≤ 0
[2]
  scaled lipid accumulation score: inactive: ≤ 0
Library stock concentration: 4 mM
  scaled lipid accumulation score: inactive: ≤ -0.001
[1]
  scaled lipid accumulation score: inactive: ≤ 0

## c1ccc2c(CC3=NCCN3)cccc2c1 [Naphazoline hydrochloride]
  scaled lipid accumulation score: inactive: ≤ 0
[4]
  scaled lipid accumulation score: inactive: 0.057
[1]
  scaled lipid accumulation score: inactive: ≤ 0 and inactive: ≤ -0.045

## c1ccc2c(CC3=NCCN3)cccc2c1 [Naphazoline HCl]
[2]
  scaled lipid accumulation score: inactive: ≤ 0
Library stock concentration: 9.5 mM
  scaled lipid accumulation score: inactive: 0.147
[1]
  scaled lipid accumulation score: inactive: ≤ 0

## COC(=O)C1=CO[C@@H](C)[C@H]2CN3CCc4c([nH]c5ccccc45)[C@@H]3C[C@H]12 [Ajmalicine hydrochloride]
  scaled lipid accumulation score: inactive: 0.17

## CC/C=C\C/C=C\C/C=C\CCCCCCCCCCCC(=O)O [Docosatrienoic acid (22:3 n-3)]
[5]
  scaled lipid accumulation score: inactive: ≤ -0.021

## CCCCCCCCCC(=O)N[C@H](CN1CCOCC1)[C@H](O)c1ccccc1 (racemic) [DL-threo-PDMP (hydrochloride)]
[5]
  scaled lipid accumulation score: inactive: 0.001

## C[C@@H](O[C@H]1OCCN(Cc2nn(P(=O)(O)O)c(=O)[nH]2)[C@H]1c1ccc(F)cc1)c1cc(C(F)(F)F)cc(C(F)(F)F)c1 [Fosaprepitant dimeglumine salt]
[2]
  scaled lipid accumulation score: inactive: 0.056
[1]
  scaled lipid accumulation score: inactive: 0.01

## COc1cc2nccc(Oc3ccc(NC(=O)NC4CC4)c(Cl)c3)c2cc1C(N)=O
[6]
  scaled lipid accumulation score: inactive: 0.067
[7]
  scaled lipid accumulation score: inactive: ≤ -0.005
[1]
  scaled lipid accumulation score: inactive: ≤ -0.005

## COc1cc2nccc(Oc3ccc(NC(=O)NC4CC4)c(Cl)c3)c2cc1C(N)=O [Lenvatinib (E7080)]
[2]
  scaled lipid accumulation score: inactive: 0.055
[1]
  scaled lipid accumulation score: inactive: ≤ 0

## CCn1c(=O)[nH]c2cc(Cl)c(Cl)cc21
[1]
  scaled lipid accumulation score: inactive: 0.826 and inactive: 0.476

## CC(C)(CO)c1cc2cc(NC(=O)C3(c4ccc5c(c4)OC(F)(F)O5)CC3)c(F)cc2n1C[C@@H](O)CO
[2]
  scaled lipid accumulation score: inactive: ≤ 0
[1]
  scaled lipid accumulation score: inactive: ≤ -0.001

## CN1C(=O)CC[C@H]1c1cccnc1 [Cotinine]
[1]
  scaled lipid accumulation score: inactive: ≤ 0
Library stock concentration: 11.3 mM
  scaled lipid accumulation score: inactive: ≤ -0.001

## CN1C(=O)CC[C@H]1c1cccnc1 [(-)-Cotinine]
[1]
  scaled lipid accumulation score: inactive: ≤ 0 and inactive: 0.057

## CN1C(=O)CC[C@H]1c1cccnc1 [Cotinine (-)]
  scaled lipid accumulation score: inactive: ≤ 0

## Cc1c(CN2CCN(C(=O)[C@H](C)O)CC2)sc2c(N3CCOCC3)nc(-c3cnc(N)nc3)nc12
Library stock concentration: 80 uM
  scaled lipid accumulation score: inactive: 0.079
[6]
  scaled lipid accumulation score: inactive: ≤ -0.015
[7]
  scaled lipid accumulation score: inactive: ≤ -0.016
[2]
  scaled lipid accumulation score: inactive: ≤ 0
[1]
  scaled lipid accumulation score: inactive: ≤ 0 and inactive: ≤ -0.016

## COC(=O)c1ccc2c(c1)NC(=O)C2=C(Nc1ccc(N(C)C(=O)CN2CCN(C)CC2)cc1)c1ccccc1
[1]
  scaled lipid accumulation score: active: 0.976

## Cc1cnc(-c2cc(N3CCN(C(=O)CCS(C)(=O)=O)CC3)ncc2Cl)c(C)c1
[2]
  scaled lipid accumulation score: inactive: ≤ 0
[1]
  scaled lipid accumulation score: inactive: ≤ 0

## CN1CCc2c(c3ccccc3n2Cc2ccc(C(=O)NO)cc2)C1 [Tubastatin A HCl]
[2]
  scaled lipid accumulation score: inactive: ≤ 0
[1]
  scaled lipid accumulation score: inactive: 0.218

## CN1CCc2c(c3ccccc3n2Cc2ccc(C(=O)NO)cc2)C1 [Tubastatin A]
[2]
  scaled lipid accumulation score: inactive: ≤ 0
[1]
  scaled lipid accumulation score: inactive: ≤ 0

## CC(=N)NCCCC[C@H](N)C(=O)O [L-NIL hydrochloride]
[1]
  scaled lipid accumulation score: inactive: 0.025

## CN(C)C(=O)c1ccc(S(=O)(=O)c2ccc(NC(=O)C(C)(O)C(F)(F)F)c(Cl)c2)cc1 (stereo unspecified)
[2]
  scaled lipid accumulation score: inactive: ≤ -0.009
[1]
  scaled lipid accumulation score: inactive: ≤ 0

## CC[C@@H]1C(=O)OC[C@@H]1Cc1cncn1C [Pilocarpine hydrochloride]
[1]
  scaled lipid accumulation score: inactive: 0.007

## CC[C@@H]1C(=O)OC[C@@H]1Cc1cncn1C [Pilocarpine nitrate]
  scaled lipid accumulation score: inactive: ≤ 0
[1]
  scaled lipid accumulation score: inactive: ≤ 0 and inactive: ≤ -0.055

## CC[C@@H]1C(=O)OC[C@@H]1Cc1cncn1C [Pilocarpine HCl]
[2]
  scaled lipid accumulation score: inactive: ≤ 0
[3]
  scaled lipid accumulation score: inactive: ≤ -0.006
[1]
  scaled lipid accumulation score: inactive: ≤ -0.001

## CC[C@@H]1C(=O)OC[C@@H]1Cc1cncn1C
[1]
  scaled lipid accumulation score: inactive: ≤ 0

## CC[C@@H]1C(=O)OC[C@@H]1Cc1cncn1C [(+)-Pilocarpine hydrochloride]
[1]
  scaled lipid accumulation score: inactive: 0.136

## Cc1c(NC(=O)c2cccnc2)c(=O)n(-c2ccccc2)n1C [Nifenazone]
  scaled lipid accumulation score: inactive: ≤ 0
[1]
  scaled lipid accumulation score: inactive: ≤ -0.027

## O=C(/C=C/c1ccc(O)cc1)c1ccc(O)cc1O [Isoliquiritigenin]
[2]
  scaled lipid accumulation score: inactive: ≤ 0
[1]
  scaled lipid accumulation score: inactive: 0.017 and inactive: 0.26

## CS(=O)(=O)OCCCCOS(C)(=O)=O [Busulfan]
[2]
  scaled lipid accumulation score: inactive: 0.013
[4]
  scaled lipid accumulation score: inactive: 0.001
[1]
  scaled lipid accumulation score: inactive: ≤ 0

## COC(=O)C1=C(C)NC(C)=C([N+](=O)[O-])[C@H]1c1ccccc1C(F)(F)F
[1]
  scaled lipid accumulation score: inactive: ≤ -0.005
